From PubChem BioAssay AID1645852 (National Center for Advancing Translational Sciences (NCATS), 2021)
Hit rate of the full screen: of about 1,200 compounds, about 160 (13%) were called active. The inconclusive results got no clear call from the source; some entries with a clear call stand among them for comparison. The call rests on the fitted dose curve; in most records, active means well fitted inhibition curve with a large enough effect; inconclusive means small, poorly fitted or top-dose-only effect; inactive means no such curve, though single readings can be large or run the other way. Where the call is inconclusive, the potency comes from a doubtful curve fit. A structure can be active in one record and inactive in another.

molecular target: Inositol hexakisphosphate kinase 1 (Homo sapiens) (UniProt Q92551); assay: Confirmatory qHTS assay for small molecule inhibitors of Inositol hexaphosphate kinase 1 (IP6K1); conditions: recombinant IP6K1 kinase, ADP-Glo luminescence, 2 h; series mostly up to 49 µM; activity change, negative = inhibition: at the top concentration; further: nearly all actives have a fitted effect of over 65% in size
How it was run: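 Screening used the top two library doses against IP6K1 with ATP and IP6 substrates. ADP formation after a 2 hr room-temperature reaction was read by ADP-Glo Max luminescence.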
On the % scale 0 is the no-effect control and ±100 the full control effect; potency means the concentration at half of the fitted maximal effect; tags describe the fitted curve by direction and shape.

Sequence of UniProt Q92551 (Q92551 whole entry, looked up): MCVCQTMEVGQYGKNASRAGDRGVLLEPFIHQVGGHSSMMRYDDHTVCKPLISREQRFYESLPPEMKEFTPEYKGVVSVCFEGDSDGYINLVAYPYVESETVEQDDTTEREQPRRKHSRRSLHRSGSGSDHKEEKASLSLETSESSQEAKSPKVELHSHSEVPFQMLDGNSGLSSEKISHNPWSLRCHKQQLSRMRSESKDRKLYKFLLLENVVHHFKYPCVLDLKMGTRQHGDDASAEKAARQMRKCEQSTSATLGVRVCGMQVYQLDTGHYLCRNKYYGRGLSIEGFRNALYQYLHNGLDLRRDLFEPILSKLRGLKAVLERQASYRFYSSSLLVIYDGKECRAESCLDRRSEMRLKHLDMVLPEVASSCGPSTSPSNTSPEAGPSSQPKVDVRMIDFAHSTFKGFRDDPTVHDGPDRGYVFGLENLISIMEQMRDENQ

| Compound | activity change, negative = inhibition | Potency |
| --- | --- | --- |
| Cc1ccc([C@H]2Nc3ccc(S(=O)(=O)Nc4cccc(Cl)c4C)cc3[C@H]3C=CC[C@H]32)cc1 | inactive: -5.21% |  |
| COCCCNc1ccc(C(=O)N2CCC(CN3CCCC3=O)CC2)cn1 | inactive: -7.16% |  |
| Cc1ccc(NC(=O)NCc2c(-n3cccc3)sc3c2CCCC3)c(Cl)c1 | inactive: -19.5% |  |
| Cc1ccc(Cn2c(Cc3ccccc3)nc3ccccc32)cc1 | inactive: -18.2% |  |
| CC(=O)N1CCN(C(=O)Cc2ccc(Nc3ncc(F)c(Nc4ccc(C(=O)Nc5ccccc5Cl)cc4)n3)cc2)CC1 |  | inconclusive: 3.26 µM [inhibitor, partial curve] |
| COC[C@H]1C[C@@H](N(C)C)[C@H](O)[C@@H]1O |  | inconclusive: 31.6 µM [inhibitor, single point] |
| N#CC(=Cc1ccc(O)c(O)c1)C(=O)NCc1ccccc1 |  | inconclusive: 18.4 µM [inhibitor, partial curve] |
| Cc1ccc2c(c1)C(c1ccc(F)cc1)N(C(=O)c1cccc(C(F)(F)F)c1)CC(=O)N2 (stereo not given) |  | inconclusive: 23.1 µM [inhibitor, partial curve, poor fit] |
| COc1cccc(CNC(=O)c2ccc3nnc(Cc4ccco4)n3c2)c1 |  | inconclusive: 26.6 µM [inhibitor, partial curve] |
| Cc1ccc(C(=O)Nc2noc3ccccc23)cc1 |  | inconclusive: 9.2 µM [inhibitor, partial curve] |
| COc1ccc(-c2ccc(C(=O)N(C)c3ccccc3)cc2)nn1 |  | inconclusive: 21.1 µM [inhibitor, partial curve] |
| COc1ccc(NC(=O)c2ccc3c(SCC(=O)O)c4c(nc3c2)CCCC4)c(OC)c1 | inactive: 5.78% |  |
| CC(=O)c1cccc(Nc2nc(-c3cccc(C)c3)nc3ccccc23)c1 |  | inconclusive: 18.4 µM [inhibitor, partial curve, poor fit] |
| COc1ccc(-c2ccc(C(=O)NC3CC(c4cc(=O)[nH]c(N)n4)C3)o2)cc1 (stereo not given) |  | inconclusive: 11.6 µM [inhibitor, partial curve] |
| CCC(C(=O)NCc1ccccc1OC)n1nc(C)n2c(cc3sccc32)c1=O (stereo not given) | inactive: 4.73% |  |
| CN(C)c1ccc2nc3ccc(=[N+](C)C)cc-3sc2c1 |  | active: 14.6 µM |
| Cc1cccc(-c2nc3ccc(C(=O)N4CCCCC4)cc3o2)n1 |  | inconclusive: 14.6 µM [inhibitor, partial curve] |
| Cc1ccc(NC(=O)/C(C#N)=C/c2cc(C)n(-c3ccc(Br)cc3)c2C)cc1C | inactive: -11% |  |
| NCC(=O)Nc1ccc(-n2nc(C(F)(F)F)cc2-c2ccc3c(ccc4ccccc43)c2)cc1 |  | inconclusive: 2.31 µM [inhibitor, partial curve] |
| COC(=O)c1cccc(NC2=NS(=O)(=O)c3ccccc32)c1 |  | inconclusive: 18.4 µM [inhibitor, partial curve] |
| CCCSCCCNC(=O)C1CCN(c2nc3ccccc3nc2C(F)(F)F)CC1 | inactive: -8.94% |  |
| CN(C)C/C=C/C(=O)Nc1cccc(C(=O)Nc2ccc(Nc3nccc(-c4cccnc4)n3)cc2)c1 |  | inconclusive: 11.6 µM [inhibitor, partial curve] |
| O=C(Nc1cnc(N2CCN(c3ccccc3)CC2)c(C(=O)O)c1)c1cccs1 |  | inconclusive: 5.8 µM [inhibitor, partial curve] |

| Compound | activity change, negative = inhibition | Potency |
| --- | --- | --- |
| O=C(NCc1ccco1)c1cc(-c2ccccc2F)cc2c1OCCN2Cc1cccnc1 |  | inconclusive: 18.4 µM [inhibitor, partial curve] |
| O=[N+]([O-])c1ccc(CNc2nc(NCc3cccc(C(F)(F)F)c3)nc3nc[nH]c23)cc1 |  | active: 1.64 µM |
| COc1ccc(-c2ccc(C(=O)N3CCCC3)c(Cl)c2)nn1 |  | inconclusive: 14.9 µM [inhibitor, partial curve] |
| O=C(NCc1ccco1)c1ccc2c(c1)N(Cc1ccc(Cl)cc1)C(=O)c1ccccc1S2 |  | inconclusive: 14.6 µM [inhibitor, partial curve] |
| NS(=O)(=O)c1ccc(Nc2nc(OCC3CCCCC3)c3[nH]cnc3n2)cc1 |  | active: 4.11 µM |
| Cc1cccc(Cc2c(C)nc3c(-c4ccccc4)c(C)[nH]n3c2=O)c1 |  | inconclusive: 2.31 µM [inhibitor, full curve] |
| Cc1cc(-c2ccc(C)c(S(=O)(=O)N3CCC(C)CC3)c2)on1 | inactive: -17.2% |  |
| Cn1nccc1Nc1nccc(-c2ccn([C@H](CO)c3ccc(Cl)c(F)c3)c(=O)c2)n1 |  | active: 8.2 µM |
| Cn1cc(-c2ccc3nnc(C(F)(F)c4ccc5ncccc5c4)n3n2)cn1 | inactive: -19.3% |  |
| CCCC(=O)Nc1ccc2c(c1)nc(CN1CCN(C(=O)OCC)CC1)n2C(C)C | inactive: 34.9% |  |
| O=C(Nc1ccc(Br)cc1)c1cc(S(=O)(=O)NC2CCCC2)ccc1F | inactive: -11.2% |  |
| Cn1cnc2cc(-c3ccc(F)cc3)cc(C(=O)NCCc3cnc[nH]3)c21 |  | inconclusive: 16.8 µM [inhibitor, partial curve] |
| c1cc(NCCc2c[nH]c3ccccc23)cc(Nc2ccncc2)c1 | inactive: -4.66% |  |
| CCOc1ccc(CNC(=O)CCS(=O)(=O)c2cc3c4c(c2)CCN4C(=O)CC3)cc1OC | inactive: 13.2% |  |
| N#C/C(=C\c1cc(Br)c(O)c(Br)c1)c1nc2ccccc2c(=O)[nH]1 |  | active: 1.84 µM |
| Cn1c(SCC(=O)Nc2ccccc2)nnc1-c1ccccc1 | inactive: -5.46% |  |
| CCOC(=O)c1cccc(NC(=O)CCCn2nc(C)c3c(C)n(-c4ccccc4)nc3c2=O)c1 | inactive: 8% |  |
| COc1cc2nc(-c3cc(F)ccc3O)nc(N[C@@H]3CNC[C@H]3C(C)(C)O)c2cc1OC |  | active: 3.26 µM |
| O=C(Nc1ccc(N2CCC(N3CCCCC3)CC2)c(C(=O)O)c1)c1ccccc1 |  | inconclusive: 4.11 µM [inhibitor, partial curve] |
| O=C(Nc1cnc(N2CCC(N3CCCCC3)CC2)c(C(=O)O)c1)c1ccc(Br)cc1 |  | inconclusive: 14.6 µM [inhibitor, partial curve] |
| OCCOCCN1CCN(C(c2ccccc2)c2ccc(Cl)cc2)CC1 (stereo not given) |  | active: 3.66 µM |
| CCc1ccc(C(=O)Nc2cc(CN3CCN(C)CC3)cc(C(F)(F)F)c2)cc1C#Cc1cnc2ccnn2c1 |  | inconclusive: 13 µM [inhibitor, partial curve] |
